Assay results from the supplement of paper PMC4604168 (melanoma cell lines).
The list shows a part of the results. Many values rest on one well or one pass, so single values are uncertain.

system: SkMel2; experiment: cell count relative to DMSO control; melanoma cells; higher = more viable cells; settings: library dose: standard library concentration; 72 h
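Note: cells treated in 1,536-well plates, then fixed and DAPI-stained, with nuclei counted from automated high-throughput microscope images.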

Row | Structure (SMILES) | cell count [%]
1 | CN(c1ncccc1CNc1nc(Nc2ccc3c(c2)CC(=O)N3)ncc1C(F)(F)F)S(C)(=O)=O + Cc1ccc(NC(=O)c2cccc(N(C)C)c2)cc1NC(=O)c1ccc(O)cc1 [ZM336372] (first compound 0.4 µM, partner dose 10 µM) | 66.1
2 | C=C(c1ccc(C(=O)O)cc1)c1cc2c(cc1C)C(C)(C)CCC2(C)C [Bexarotene] + Nc1ccn([C@@H]2O[C@H](CO)[C@@H](O)C2(F)F)c(=O)n1 [gemcitabine] (first compound 10 µM, partner dose 0.002 µM) | 84.2
3 | CS(=O)(=O)c1ccc(C(=O)Nc2ccc(Cl)c(-c3ccccn3)c2)c(Cl)c1 [vismodegib] + CS(=O)(=O)CCNCc1ccc(-c2ccc3ncnc(Nc4ccc(OCc5cccc(F)c5)c(Cl)c4)c3c2)o1 [lapatinib] (first compound 5 µM, partner dose 4 µM) | 79
4 | NC1(c2ccc(-c3nc4ccn5c(=O)[nH]nc5c4cc3-c3ccccc3)cc2)CCC1 + Cc1cc(N2CCOCC2)cc2[nH]c(-c3c(NC[C@@H](O)c4cccc(Cl)c4)cc[nH]c3=O)nc12 [BMS536924] (first compound 2 µM, partner dose 1 µM) | 67.2
5 | C=C(c1ccc(C(=O)O)cc1)c1cc2c(cc1C)C(C)(C)CCC2(C)C [Bexarotene] + Nc1ncn([C@H]2C[C@H](O)[C@@H](CO)O2)c(=O)n1 [decitabine] (first compound 10 µM, partner dose 0.5 µM) | 83.2
6 | NC1(c2ccc(-c3nc4ccn5c(=O)[nH]nc5c4cc3-c3ccccc3)cc2)CCC1 + Cn1c(Nc2ccc(C(F)(F)F)cc2)nc2cc(Oc3ccnc(-c4ncc(C(F)(F)F)[nH]4)c3)ccc21 [CHIR265] (first compound 2 µM, partner dose 0.4 µM) | 30.9
7 | CN(c1ncccc1CNc1nc(Nc2ccc3c(c2)CC(=O)N3)ncc1C(F)(F)F)S(C)(=O)=O + C=CCn1c(=O)c2cnc(Nc3ccc(N4CCN(C)CC4)cc3)nc2n1-c1cccc(C(C)(C)O)n1 [MK1775] (first compound 0.4 µM, partner dose 0.1 µM) | 71.5
8 | CCCS(=O)(=O)Nc1ccc(F)c(C(=O)c2c[nH]c3ncc(Cl)cc23)c1F + COc1cc(Nc2ncc(F)c(Nc3ccc4c(n3)NC(=O)C(C)(C)O4)n2)cc(OC)c1OC [Tamatinib] (first compound 0.4 µM, partner dose 2 µM) | 77.1
9 | NC1(c2ccc(-c3nc4ccn5c(=O)[nH]nc5c4cc3-c3ccccc3)cc2)CCC1 + CN(C)S(=O)(=O)c1ccc2c(c1)/C(=C/c1cc3c([nH]1)CCCC3)C(=O)N2 [SU6656] (first compound 2 µM, partner dose 2 µM) | 65.2
10 | CS(=O)(=O)c1ccc(C(=O)Nc2ccc(Cl)c(-c3ccccn3)c2)c(Cl)c1 [vismodegib] + NC(=O)Nc1cc(-c2cccc(F)c2)sc1C(=O)N[C@H]1CCCNC1 [AZD7762] (first compound 5 µM, partner dose 0.1 µM) | 78.5
11 | CCCS(=O)(=O)Nc1ccc(F)c(C(=O)c2c[nH]c3ncc(Cl)cc23)c1F + OCCn1cc(-c2cnc3nnn(Cc4ccc5ncccc5c4)c3n2)cn1 [PF04217903] (first compound 0.4 µM, partner dose 5 µM) | 101
12 | CS(=O)(=O)c1ccc(C(=O)Nc2ccc(Cl)c(-c3ccccn3)c2)c(Cl)c1 [vismodegib] + CC(=O)c1c(C)c2cnc(Nc3ccc(N4CCNCC4)cn3)nc2n(C2CCCC2)c1=O [palbociclib] (first compound 5 µM, partner dose 0.2 µM) | 69.9
13 | CN(c1ncccc1CNc1nc(Nc2ccc3c(c2)CC(=O)N3)ncc1C(F)(F)F)S(C)(=O)=O + CS(=O)(=O)CCNCc1ccc(-c2ccc3ncnc(Nc4ccc(OCc5cccc(F)c5)c(Cl)c4)c3c2)o1 [lapatinib] (first compound 0.4 µM, partner dose 4 µM) | 68.2
14 | CN(c1ncccc1CNc1nc(Nc2ccc3c(c2)CC(=O)N3)ncc1C(F)(F)F)S(C)(=O)=O + Cn1c(Nc2ccc(C(F)(F)F)cc2)nc2cc(Oc3ccnc(-c4ncc(C(F)(F)F)[nH]4)c3)ccc21 [CHIR265] (first compound 0.4 µM, partner dose 0.4 µM) | 30.1
15 | CS(=O)(=O)c1ccc(C(=O)Nc2ccc(Cl)c(-c3ccccn3)c2)c(Cl)c1 [vismodegib] + Cn1c(Nc2ccc(C(F)(F)F)cc2)nc2cc(Oc3ccnc(-c4ncc(C(F)(F)F)[nH]4)c3)ccc21 [CHIR265] (first compound 5 µM, partner dose 0.4 µM) | 50.8
16 | CS(=O)(=O)c1ccc(C(=O)Nc2ccc(Cl)c(-c3ccccn3)c2)c(Cl)c1 [vismodegib] + O=C(CCCCCCC(=O)Nc1ccccc1)NO [vorinostat] (first compound 5 µM, partner dose 0.4 µM) | 66.3

Row | Structure (SMILES) | cell count [%]
17 | CS(=O)(=O)c1ccc(C(=O)Nc2ccc(Cl)c(-c3ccccn3)c2)c(Cl)c1 [vismodegib] + Cc1cc(Nc2cc(N3CCN(C)CC3)nc(/C=C/c3ccccc3)n2)n[nH]1 [ENMD2076] (first compound 5 µM, partner dose 0.2 µM) | 98.8
18 | CS(=O)(=O)c1ccc(C(=O)Nc2ccc(Cl)c(-c3ccccn3)c2)c(Cl)c1 [vismodegib] + OCc1c[nH]c2ccccc12 [Indole-3-carbinol] (first compound 5 µM, partner dose 4 µM) | 101
19 | CN(c1ncccc1CNc1nc(Nc2ccc3c(c2)CC(=O)N3)ncc1C(F)(F)F)S(C)(=O)=O + C[C@]1(c2nc3c(C(N)=O)cccc3[nH]2)CCCN1 [Veliparib] (first compound 0.4 µM, partner dose 7 µM) | 77.5
20 | C=C(c1ccc(C(=O)O)cc1)c1cc2c(cc1C)C(C)(C)CCC2(C)C [Bexarotene] + Cc1ccc(NC(=O)c2cccc(N(C)C)c2)cc1NC(=O)c1ccc(O)cc1 [ZM336372] (first compound 10 µM, partner dose 10 µM) | 75.6
21 | CCCS(=O)(=O)Nc1ccc(F)c(C(=O)c2c[nH]c3ncc(Cl)cc23)c1F + CC1(C)NC(=O)N(c2ccc([N+](=O)[O-])c(C(F)(F)F)c2)C1=O [nilutamide] (first compound 0.4 µM, partner dose 5 µM) | 90.1
22 | CS(=O)(=O)c1ccc(C(=O)Nc2ccc(Cl)c(-c3ccccn3)c2)c(Cl)c1 [vismodegib] + C[C@@H]1CCN(C(=O)CC#N)C[C@@H]1N(C)c1ncnc2[nH]ccc12 [CP690550] (first compound 5 µM, partner dose 5 µM) | 88.6
23 | NC1(c2ccc(-c3nc4ccn5c(=O)[nH]nc5c4cc3-c3ccccc3)cc2)CCC1 + CN(NC(=O)CC(=O)NN(C)C(=S)c1ccccc1)C(=S)c1ccccc1 [STA4783] (first compound 2 µM, partner dose 0.03 µM) | 62.7
24 | CS(=O)(=O)c1ccc(C(=O)Nc2ccc(Cl)c(-c3ccccn3)c2)c(Cl)c1 [vismodegib] + Nc1ccn([C@@H]2O[C@H](CO)[C@@H](O)C2(F)F)c(=O)n1 [gemcitabine] (first compound 5 µM, partner dose 0.002 µM) | 118
25 | CCCS(=O)(=O)Nc1ccc(F)c(C(=O)c2c[nH]c3ncc(Cl)cc23)c1F + O=C(CCCCCCC(=O)Nc1ccccc1)NO [vorinostat] (first compound 0.4 µM, partner dose 0.4 µM) | 79.9
26 | CN(c1ncccc1CNc1nc(Nc2ccc3c(c2)CC(=O)N3)ncc1C(F)(F)F)S(C)(=O)=O + Cn1nnc2c(C(N)=O)ncn2c1=O [temozolomide] (first compound 0.4 µM, partner dose 10 µM) | 71.4
27 | CCCS(=O)(=O)Nc1ccc(F)c(C(=O)c2c[nH]c3ncc(Cl)cc23)c1F + COc1ccc(Cl)c(Nc2nc3ccccc3nc2NS(=O)(=O)c2cccc(NC(=O)C(C)(C)N)c2)c1 [XL147] (first compound 0.4 µM, partner dose 4 µM) | 75.1
28 | NC1(c2ccc(-c3nc4ccn5c(=O)[nH]nc5c4cc3-c3ccccc3)cc2)CCC1 + Cn1c(=O)n(-c2ccc(C(C)(C)C#N)cc2)c2c3cc(-c4cnc5ccccc5c4)ccc3ncc21 [NVP-BEZ235] (first compound 2 µM, partner dose 0.02 µM) | 33.4
29 | NC1(c2ccc(-c3nc4ccn5c(=O)[nH]nc5c4cc3-c3ccccc3)cc2)CCC1 + Cc1nc(Nc2ncc(C(=O)Nc3c(C)cccc3Cl)s2)cc(N2CCN(CCO)CC2)n1 [dasatanib] (first compound 2 µM, partner dose 0.02 µM) | 70.6
30 | NC1(c2ccc(-c3nc4ccn5c(=O)[nH]nc5c4cc3-c3ccccc3)cc2)CCC1 + O=C(Nc1cccc(Cl)c1)Nc1ncc(CCNc2ncnc3ccsc23)s1 [SNS314] (first compound 2 µM, partner dose 0.004 µM) | 62.2
31 | CCCS(=O)(=O)Nc1ccc(F)c(C(=O)c2c[nH]c3ncc(Cl)cc23)c1F + Cc1ccc(NC(=O)c2cccc(N(C)C)c2)cc1NC(=O)c1ccc(O)cc1 [ZM336372] (first compound 0.4 µM, partner dose 10 µM) | 134
32 | CCCS(=O)(=O)Nc1ccc(F)c(C(=O)c2c[nH]c3ncc(Cl)cc23)c1F + Nc1nc(F)nc2c1ncn2[C@@H]1O[C@H](CO)[C@@H](O)[C@@H]1O [fludarabine] (first compound 0.4 µM, partner dose 1 µM) | 1.39
